We go through 84 compounds from ChEMBL document CHEMBL4888484, “Replenishing the malaria drug discovery pipeline: Screening and hit evaluation of the MMV Hit Generation Library 1 (HGL1) against asexual blood stage Plasmodium falciparum ,using a nano luciferase reporter read-out” (2022).

The whole screen tested about 150,000 compounds, of which about 540 (0.36%) showed an effect of 50% or more. Some of the results follow.

The subject of this experiment is Plasmodium falciparum. In words: Primary screen in NF54 nanoGlo assay, in single point, at 2uM, 72h; a lower Z score goes with more inhibition. The experiment is classed as functional, Erythrocyte. The note with it: timepoint 72 hour.
Take `CC(C)[C@H]1N(C(=O)N2CCOCC2)CCN1S(=O)(=O)c1ccc(F)cc1`: the “% Inhibition” value is listed as 1% and the Z score is given as -0.14.
In the same order, the values of `O=C(Nc1ccnn1C1CCCCC1)c1n[nH]c2ccccc12` are -19% and 2.51.
For `Cc1cnc(CNc2ccc(S(=O)(=O)CCO)cc2C)o1`, in that order: 9% and -0.92.
For `CN(Cc1ncc[nH]1)C(=O)Nc1cc(C(=O)N2CCCCC2)ccc1Cl`, in that order: 3% and -0.47.
With `COc1ccc2c(N3CC4(CCC4)[C@H]3c3ccncc3)ncnc2c1F`, the “% Inhibition” value is recorded as -8% and the Z score is reported as 1.26.
For `CCN1CCN(C[C@]2(O)CCCN(CC3CC3)C2=O)CC1`, in that order: 1% and -0.08.
For `CNS(=O)(=O)CC(=O)N[C@H](c1c(F)cccc1F)C(F)(F)F`, in that order: -2% and 0.31.
For `Cc1ccc(CN2CCC[C@H](C(=O)Nc3nncs3)C2)cc1`, in that order: -4% and 0.33.
On to `CCOC1CC(NC(=O)CCc2nc(C3CC3)no2)C12CCCCC2` (stereo not drawn), for which the “% Inhibition” value is recorded as -4% and the Z score came out at 0.5.
Take `CS(=O)(=O)Cc1ccc(-c2ccc3c(c2)OCO3)nc1`: the “% Inhibition” value is reported as -8% and the Z score was 1.36.
For `CCN(CC)S(=O)(=O)c1ccc(Oc2ccc(C(=O)c3ccc(F)cc3)cc2)nc1`, in that order: -3% and 0.45.
For `COc1ccc(NCc2ccc(C)o2)cn1`, in that order: -13% and 1.5.
In the same order, the values of `CCC[C@H](C)N1CC2(CCN(C(=O)Cn3cccnc3=O)CC2)OC1=O` are -1% and 0.15.
`Cc1nc(CC[C@H]2CCN(C(=O)c3noc(C)c3COc3ccccc3)C2)no1`: the “% Inhibition” value worked out at 1% and the Z score was -0.2.
Regarding `O=C(Nc1ccccc1C(F)(F)F)N1CCN(c2nc3cc(F)ccc3n3cccc23)CC1`, the “% Inhibition” value worked out at 15% and the Z score was -2.72.
Take `FC1(F)CN[C@H](c2noc(C3CC3)n2)C1`: the “% Inhibition” value was -5% and the Z score was 0.94.
For `Cn1ncc(C2CC2)c1CNC(=O)N[C@H]1C[C@@H](Oc2ccccc2)C1(C)C`, in that order: -6% and 0.94.
Consider `CCOC(=O)c1c(C)c(CCC(=O)NCc2ccccc2Cl)n(C)c1C`, for which the “% Inhibition” value was 2% and the Z score is -0.4.
For `C[C@H]1CCCCN1CCC1CCN(C(=O)Nc2ccncc2F)CC1`, in that order: 3% and -0.45.
Take `O=C1CN(CC2=Nc3ccccc3S(=O)(=O)N2)CCN1`: the “% Inhibition” value is recorded as -8% and the Z score came to 0.82.
For `CCCC(=O)N1CCc2nc(COC)sc2C1`, in that order: -14% and 1.87.
In the case of `O=C(Nc1ccc(OCC(F)(F)C(F)F)nc1)[C@@H]1COCCO1`, the “% Inhibition” value is -14% and the Z score turned out to be 2.05.
For `Cc1ccc(C(=O)N2CCC(N3C(=O)N[C@@H](CC(C)(C)C)C3=O)CC2)cc1`, in that order: -22% and 2.39.
Take `CC1NCCN(S(=O)(=O)c2ccc3c(c2)OCCCO3)C1C` (stereo not drawn): the “% Inhibition” value is -6% and the Z score is 0.57.
For `Cc1ccc(C#N)c(NCc2cc3n(n2)CCN(C2CCCCC2)C3)n1`, in that order: 9% and -1.57.
In the same order, the values of `CN(C(=O)Cn1cc(S(=O)(=O)Cc2ccccc2)c2ccccc21)C1CCCCC1` are -10% and 1.57.
For `CCC[C@H](C)CS(=O)(=O)NC(=O)Cc1nc(C)sc1C`, in that order: 3% and -0.41.
Turning to `O=C(N[C@H]1CC[C@H](Oc2ncc(F)cn2)CC1)c1cccc(F)c1`, the “% Inhibition” value was -5% and the Z score was determined as 0.98.
For `COc1ccc(NC(=O)Cn2c(=O)n(CCc3cccs3)c(=O)c3ccccc32)cc1Cl`, in that order: 38% and -4.27.
In the same order, the values of `c1ccc(-n2nnc(-c3noc(-c4ccccn4)n3)c2-c2ccncc2)cc1` are -27% and 5.29.
For `CC(C)C1CCCN(C(=O)COC2CCCCC2C)CC1` (stereo not drawn), in that order: 11% and -1.33.
In the case of `CCn1ccnc1CNc1cc(C2CCCCCC2)[nH]n1`, the “% Inhibition” value is given as -1% and the Z score is 0.04.
In the same order, the values of `Cc1nc(CC(=O)N2CCOC[C@H]2C(=O)O)cs1` are -9% and 1.37.
For `CN1CCC(C(=O)N2CCCC2c2cccc(F)c2)CC1=O` (stereo not drawn), the “% Inhibition” value is -1% and the Z score was 0.21.
In the same order, the values of `Cc1ccc(N2CCCN(Cc3cc(F)ccc3Cl)C2=O)c(NC(=O)Nc2cccc(Cl)c2)c1` are 2% and -0.18.
For the compound `Oc1[nH]nc(-c2ccccc2)c1C(c1ccc(Br)cc1)c1c(-c2ccccc2)n[nH]c1O`, the “% Inhibition” value is reported as -12% and the Z score is reported as 2.22.
With `O=C(NCc1noc(-c2ccccc2)n1)C1(N2CCOCC2)CCCCC1`, the “% Inhibition” value is reported as 16% and the Z score was -2.05.
In the same order, the values of `O=C(NCc1ccc2nsnc2c1)c1cc(=O)n(-c2ccccc2)[nH]1` are -9% and 1.64.
For `CCn1nc(C(=O)N2CCc3c(ncn3C)C2)c(=O)c2ccccc21`, in that order: -2% and 0.49.
As to `CCC(=O)Nc1ccc2c(c1)CN(C(=O)c1ccc(OC)cc1)[C@H](C(=O)N1CCCC1)C2`, the “% Inhibition” value is on record as -8% and the Z score worked out at 1.24.
For `O=C(Nc1ccc(F)cc1Cl)[C@@H]1CCCN1c1ncnc2sccc12`, in that order: -4% and 0.62.
Turning to `COc1cc2cc(CNCCO)c(=O)n(CC3CCCCC3)c2cc1OC`, the “% Inhibition” value is listed as -15% and the Z score amounted to 2.9.
For `CN1CCO[C@H](C(=O)NC(C)(C)COc2ncc(Cl)cc2Cl)C1`, in that order: -9% and 1.72.
For `O=C(NCCN1CCCC1)[C@H]1CCCN(c2cnc3nccnc3c2)C1`, in that order: -1% and 0.13.
As for `O=C1C[C@@H](c2cccc3nsnc23)c2cc3cn[nH]c3cc2N1`, the “% Inhibition” value is recorded as -2% and the Z score was 0.38.
With `CC1(C)[C@H](Cc2cc(CCO)on2)C[C@@H]1NCc1ccccc1F`, the “% Inhibition” value was 33% and the Z score is -3.72.
For `N#Cc1cccc(NC(=O)N2CCC(c3cc4n(n3)CCCNC4=O)CC2)c1`, in that order: -16% and 2.92.
In the same order, the values of `NC(=O)c1ccc(C(=O)N(C2CCC2)C2CCC2)s1` are 1% and -0.19.
For `CC[C@H]1CCCCN1S(=O)(=O)c1cc(-c2nc(-c3ccccc3)no2)sc1C`, in that order: -4% and 0.44.
Regarding `CCN1C(=O)C[C@H](C(=O)NCc2cc(O)ccc2Cl)[C@H]1c1nccn1C`, the “% Inhibition” value is given as 1% and the Z score is given as -0.13.
For `N#Cc1ccc(F)c(CNc2ccn(-c3ncccc3C(F)(F)F)n2)c1`, in that order: -11% and 1.09.
In the same order, the values of `CS(=O)(=O)N1CCC(C(=O)Nc2cnn(Cc3c(F)cc(F)c(F)c3F)c2)CC1` are 36% and -5.27.
On to `c1ccc(-c2noc([C@H]3CCn4ccnc4C3)n2)nc1`, for which the “% Inhibition” value is -11% and the Z score is given as 1.68.
In the same order, the values of `COc1ccc2[nH]cc(C(=O)c3sc(Nc4cc(C)cc(C)c4)nc3N)c2c1` are -28% and 4.35.
On to `Cc1ccc(Nc2ccn3c(=O)n(CC(=O)NCc4ccc(F)cc4)nc3n2)cc1`, for which the “% Inhibition” value was -8% and the Z score was 0.83.
For `Cc1noc(C)c1CCC(=O)N1CCCCCO1`, in that order: 0% and 0.05.
With `CC(C)OC1CCC(NC(=O)N2C[C@H](N)C3(CCC3)C2)CC1` (stereo partly drawn), the “% Inhibition” value is given as 5% and the Z score is recorded as -0.93.
With `Nc1cc(N2CCC[C@@]3(CCC(=O)N(CCc4ccccc4)C3)C2)ncn1`, the “% Inhibition” value is -7% and the Z score was 0.97.
For `N[C@@H]1CCN(C(=O)c2cccc(OCc3cccc(Cl)c3)c2)C1`, in that order: -1% and 0.1.
In the same order, the values of `CCOC(=O)Cc1csc(NC(=O)N[C@H]2CC(=O)N(c3ccc4c(c3)OCCO4)C2)n1` are -7% and 1.19.
In the same order, the values of `CCN1CCC[C@@H]1CNC(=O)NC1CCCCC1` are 0% and 0.01.
On to `COc1cncc(C(NC(=O)c2cncc(Cl)c2)[C@H]2C[C@H](O)C2)c1` (stereo partly drawn), for which the “% Inhibition” value was -2% and the Z score is 0.26.
For `CC1=C(CCN2CCN(CCn3cc(C(=O)NC(C)C)nn3)CC2)C(C)(C)CCC1`, the “% Inhibition” value amounted to 6% and the Z score is -1.08.
In the same order, the values of `CN(c1ncc(Cl)cn1)[C@H]1CCc2ccccc21` are -7% and 0.86.
For `Cc1cnc(NC(=O)c2ccccc2F)o1`, in that order: -3% and 0.26.
In the same order, the values of `CN(C)[C@H]1CN(c2nnc(-c3ccccc3)s2)C[C@@H]1O` are -7% and 1.32.
Turning to `O=C(c1cnn(Cc2ccccc2)c1)N1C[C@@H]2[C@@H]3CC[C@@H](C3)[C@@H]2C1`, the “% Inhibition” value is listed as -10% and the Z score was 1.78.
For `O=C([C@@H]1CCCN1Cc1cncn1Cc1ccccc1)N1CCOCC1`, in that order: -3% and 0.7.
With `Cc1cc2c(N[C@H]3C[C@H]4OCC[C@@H]34)ncnc2s1`, the “% Inhibition” value turned out to be 6% and the Z score is listed as -0.73.
For `CC1CCN(c2nc(-c3ccc(C(C)C)cc3)c3c(N)n(C)nc3n2)CC1`, in that order: -18% and 2.12.
For the compound `CCCc1nc(C)cc(N(C)CCn2ccnc2)n1`, the “% Inhibition” value was -4% and the Z score was found to be 0.74.
In the same order, the values of `C[C@@H](C(=O)N(Cc1ccncc1)C1CC1)c1ccccc1` are 8% and -0.89.
In the case of `CCCn1ncc(NC(=O)Cn2ccc(-c3nccnc3C)n2)n1`, the “% Inhibition” value is -16% and the Z score amounted to 1.66.
For `COc1cc(C)nc(N2CCO[C@H](c3nccs3)C2)n1`, in that order: -4% and 0.45.
In the same order, the values of `COc1cccnc1-c1cccc(C(=O)N(CCO)Cc2nccn2C)c1` are -15% and 1.73.
For `COc1cccc(CN2CCC[C@H](c3cc4n(n3)CCCNC4=O)C2)n1`, in that order: -12% and 2.2.
Take `CCNC(=O)Cn1ccc(Nc2ccc3nccnc3n2)n1`: the “% Inhibition” value is 1% and the Z score is recorded as -0.15.
In the same order, the values of `C[C@H](Nc1ccc(C(F)(F)F)cn1)c1ccncc1` are -14% and 1.95.
In the same order, the values of `CCNC(=O)[C@H](C)NC(=O)c1cc(C)ccc1O` are -8% and 1.5.
For `c1ccc(C(Cc2noc([C@H]3CCOC3)n2)c2ccccc2)cc1`, in that order: 5% and -0.92.
`Cc1ccc(Cn2ccc(NC(=O)c3noc4c3CCc3ccccc3-4)n2)cc1`: the “% Inhibition” value is recorded as -16% and the Z score is reported as 1.77.
For `Cn1nccc1CS(=O)(=O)Cc1csc(-c2ccoc2)n1`, in that order: 1% and -0.12.
For the compound `Cc1oc(CNC(=O)c2cccc(F)c2)nc1C(=O)N1CCCC1`, the “% Inhibition” value was -11% and the Z score is listed as 1.48.
In the same order, the values of `C[C@@H](c1ccc(F)c(F)c1)N(C)C(=O)C1=NN(c2ccccc2)C(=O)CC1` are -8% and 1.06.

For orientation: % Inhibition means the change of the read-out against control, counted positive when it falls.
